# In the supplement of paper PMC8728848:
# Some of the results follow.
# B1: OVGAL11 (Ovis aries), AAF64320 (protein)
# chain: MDSLPNPYLQSVSLTVCYMVKIKANLLSAFGKNPELQVDFGTGTGQGGNIPFRFWYCDGMVVMNTFTDGSWQKEEKVLTDAFVPGQPFELQFLVLEKEYQVFVKNKPICQFAHRLPLQSVKMLDVRGDIVLTSVDTL
# Legend:
# Assay in all cases: glycan array binding signal (z-score within array); higher = stronger binding
# Conditions in all cases: glycan notation: IUPAC condensed, linker removed
# [1] = target: Neu5Ac(a2-6)Gal(b1-4)GlcNAc(b1-3)Gal(b1-4)GlcNAc(b1-3)[Neu5Ac(a2-6)Gal(b1-4)GlcNAc(b1-3)Gal(b1-4)GlcNAc(b1-6)]GalNAc
# How it was run: (§1)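 Glycan array binding is given as a within-array Z-score, which can be read as non-binding when negative. The arrays, 3228 of them, came from the Consortium for Functional Glycomics database and were retained only where the protein sequence was available. Z-scores were averaged across arrays of the same protein sequence at different concentrations or buffers and across linkers.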
# [2] = target: Neu5Ac(a2-6)Gal(b1-4)GlcNAc(b1-3)Gal(b1-4)GlcNAc(b1-6)[Gal(b1-3)]GalNAc
# How it was run: as §1
# [3] = target: Neu5Ac(a2-6)Gal(b1-4)GlcNAc(b1-3)Gal(b1-4)[Fuc(a1-3)]GlcNAc(b1-3)Gal(b1-4)[Fuc(a1-3)]GlcNAc
# How it was run: as §1
# [4] = target: Neu5Ac(a2-6)Gal(b1-4)GlcNAc(b1-3)GalNAc
# How it was run: as §1
# [5] = target: Neu5Ac(a2-6)Gal(b1-4)GlcNAc(b1-3)[Neu5Ac(a2-6)Gal(b1-4)GlcNAc(b1-6)]GalNAc
# How it was run: as §1
# [6] = target: Neu5Ac(a2-6)Gal(b1-4)GlcNAc(b1-6)GalNAc
# How it was run: as §1
# [7] = target: Neu5Ac(a2-6)Gal(b1-4)GlcNAc(b1-6)[Gal(b1-3)GlcNAc(b1-3)]Gal(b1-4)Glc
# How it was run: as §1
# [8] = target: Neu5Ac(a2-6)Gal(b1-4)GlcNAc(b1-6)[Gal(b1-3)]GalNAc
# How it was run: as §1
# [9] = target: Neu5Ac(a2-6)Gal(b1-4)GlcNAc6S
# How it was run: as §1
# Neu5Ac(a2-6)GalNAc = target: Neu5Ac(a2-6)GalNAc
# How it was run: as §1
# [10] = target: Neu5Ac(a2-6)GalNAc(b1-4)GlcNAc
# How it was run: as §1
# [11] = target: Neu5Ac(a2-6)GalNAc(b1-4)GlcNAc6S
# How it was run: as §1
# [12] = target: Neu5Ac(a2-6)GlcNAc(b1-4)GlcNAc
# How it was run: as §1
# [13] = target: Neu5Ac(a2-6)GlcNAc(b1-4)GlcNAc(b1-4)GlcNAc
# How it was run: as §1
# Neu5Ac(a2-8)Neu5Ac = target: Neu5Ac(a2-8)Neu5Ac
# How it was run: as §1
# [14] = target: Neu5Ac(a2-8)Neu5Ac(a2-3)Gal(b1-3)GalNAc(b1-4)[Neu5Ac(a2-3)]Gal(b1-4)Glc
# How it was run: as §1
# [15] = target: Neu5Ac(a2-8)Neu5Ac(a2-3)Gal(b1-3)GalNAc(b1-4)[Neu5Ac(a2-8)Neu5Ac(a2-3)]Gal(b1-4)Glc
# How it was run: as §1
# [16] = target: Neu5Ac(a2-8)Neu5Ac(a2-3)Gal(b1-4)Glc
# How it was run: as §1
# [17] = target: Neu5Ac(a2-8)Neu5Ac(a2-3)Gal(b1-4)GlcNAc
# How it was run: as §1
# [18] = target: Neu5Ac(a2-8)Neu5Ac(a2-3)[Gal(b1-3)GalNAc(b1-4)]Gal(b1-4)Glc
# How it was run: as §1
# [19] = target: Neu5Ac(a2-8)Neu5Ac(a2-3)[GalNAc(b1-4)]Gal(b1-4)Glc
# How it was run: as §1
# [20] = target: Neu5Ac(a2-8)Neu5Ac(a2-8)Neu5Ac
# How it was run: as §1
# [21] = target: Neu5Ac(a2-8)Neu5Ac(a2-8)Neu5Ac(a2-3)Gal(b1-4)Glc
# How it was run: as §1
# [22] = target: Neu5Ac(a2-8)Neu5Ac(a2-8)Neu5Ac(a2-3)[Gal(b1-3)GalNAc(b1-4)]Gal(b1-4)Glc
# How it was run: as §1
# [23] = target: Neu5Ac(a2-8)Neu5Ac(a2-8)Neu5Ac(a2-3)[GalNAc(b1-4)]Gal(b1-4)Glc
# How it was run: as §1
# [24] = target: Neu5Ac(a2-8)Neu5Ac(a2-8)Neu5Ac(a2-8)Neu5Ac(a2-3)[GalNAc(b1-4)]Gal(b1-4)Glc
# How it was run: as §1
# [25] = target: Neu5Ac(a2-8)Neu5Gc(a2-3)Gal(b1-4)GlcNAc
# How it was run: as §1
# [26] = target: Neu5Ac(b2-6)Gal(b1-4)GlcNAc
# How it was run: as §1
# Neu5Ac(b2-6)GalNAc = target: Neu5Ac(b2-6)GalNAc
# How it was run: as §1
# [27] = target: Neu5Ac9Ac(a2-3)Gal(b1-3)GlcNAc
# How it was run: as §1
# [28] = target: Neu5Ac9Ac(a2-3)Gal(b1-4)GlcNAc
# How it was run: as §1
# [29] = target: Neu5Ac9Ac(a2-6)Gal(b1-4)GlcNAc
# How it was run: as §1
# [30] = target: Neu5Gc(a2-3)Gal(b1-3)GlcNAc
# How it was run: as §1
# [31] = target: Neu5Gc(a2-3)Gal(b1-3)[Fuc(a1-4)]GlcNAc
# How it was run: as §1
# Neu5Gc(a2-3)Gal(b1-4)Glc = target: Neu5Gc(a2-3)Gal(b1-4)Glc
# How it was run: as §1
# [32] = target: Neu5Gc(a2-3)Gal(b1-4)GlcNAc
# How it was run: as §1
# [33] = target: Neu5Gc(a2-3)Gal(b1-4)GlcNAc(b1-3)Gal(b1-4)GlcNAc(b1-2)Man(a1-3)[Neu5Gc(a2-3)Gal(b1-4)GlcNAc(b1-3)Gal(b1-4)GlcNAc(b1-2)Man(a1-6)]Man(b1-4)GlcNAc(b1-4)GlcNAc
# How it was run: as §1
# [34] = target: Neu5Gc(a2-3)Gal(b1-4)[Fuc(a1-3)]GlcNAc
# How it was run: as §1
# [35] = target: Neu5Gc(a2-3)Gal(b1-4)[Fuc(a1-4)]GlcNAc
# How it was run: as §1
# [36] = target: Neu5Gc(a2-6)Gal(b1-4)GlcNAc
# How it was run: as §1
# Neu5Gc(a2-6)GalNAc = target: Neu5Gc(a2-6)GalNAc
# How it was run: as §1
# [37] = target: Neu5Gc(a2-8)Neu5Ac(a2-3)Gal(b1-4)GlcNAc
# How it was run: as §1
# [38] = target: Neu5Gc(a2-8)Neu5Gc(a2-3)Gal(b1-4)GlcNAc
# How it was run: as §1
# [39] = target: Neu5Gc(a2-8)Neu5Gc(a2-3)Gal(b1-4)GlcNAc(b1-3)Gal(b1-4)GlcNAc
# How it was run: as §1
# [40] = target: Neu5Gc(a2-8)Neu5Gc(a2-6)Gal(b1-4)GlcNAc
# How it was run: as §1
# [41] = target: Neu5Gc(b2-6)Gal(b1-4)GlcNAc
# How it was run: as §1
binder,measurement,setting,value
B1,glycan array binding signal (z-score),[1],-0.113
same,glycan array binding signal (z-score),[2],-0.092
same,glycan array binding signal (z-score),[3],-0.12
same,glycan array binding signal (z-score),[4],-0.082
same,glycan array binding signal (z-score),[5],-0.098
same,glycan array binding signal (z-score),[6],-0.105
same,glycan array binding signal (z-score),[7],-0.092
same,glycan array binding signal (z-score),[8],-0.111
same,glycan array binding signal (z-score),[9],-0.319
same,glycan array binding signal (z-score),Neu5Ac(a2-6)GalNAc,-0.174
same,glycan array binding signal (z-score),[10],-0.325
same,glycan array binding signal (z-score),[11],-0.112
same,glycan array binding signal (z-score),[12],-0.131
same,glycan array binding signal (z-score),[13],-0.046
same,glycan array binding signal (z-score),Neu5Ac(a2-8)Neu5Ac,-0.207
same,glycan array binding signal (z-score),[14],1.75
same,glycan array binding signal (z-score),[15],-0.057
same,glycan array binding signal (z-score),[16],-0.306
same,glycan array binding signal (z-score),[17],-0.116
same,glycan array binding signal (z-score),[18],13.5
same,glycan array binding signal (z-score),[19],-0.369
same,glycan array binding signal (z-score),[20],-0.256
same,glycan array binding signal (z-score),[21],-0.262
same,glycan array binding signal (z-score),[22],-0.044
same,glycan array binding signal (z-score),[23],0.144
same,glycan array binding signal (z-score),[24],-0.225
same,glycan array binding signal (z-score),[25],0.807
same,glycan array binding signal (z-score),[26],-0.075
same,glycan array binding signal (z-score),Neu5Ac(b2-6)GalNAc,-0.064
same,glycan array binding signal (z-score),[27],-0.105
same,glycan array binding signal (z-score),[28],-0.116
same,glycan array binding signal (z-score),[29],0.262
same,glycan array binding signal (z-score),[30],-0.172
same,glycan array binding signal (z-score),[31],-0.072
same,glycan array binding signal (z-score),Neu5Gc(a2-3)Gal(b1-4)Glc,-0.214
same,glycan array binding signal (z-score),[32],-0.362
same,glycan array binding signal (z-score),[33],-0.031
same,glycan array binding signal (z-score),[34],-0.101
same,glycan array binding signal (z-score),[35],0.714
same,glycan array binding signal (z-score),[36],-0.26
same,glycan array binding signal (z-score),Neu5Gc(a2-6)GalNAc,-0.016
same,glycan array binding signal (z-score),[37],-0.075
same,glycan array binding signal (z-score),[38],-0.07
same,glycan array binding signal (z-score),[39],-0.115
same,glycan array binding signal (z-score),[40],-0.096
same,glycan array binding signal (z-score),[41],-0.073
